Test results reported in a collection of fitness landscapes (doi:10.1016/j.celrep.2020.107928).
The full ranking holds about 81,000 sequences; the median of “one-hybrid fitness for binding parS DNA” is about -0.17, and the highest 2% start at about 0.51. The list shows a part of the results.

B1: Caulobacter ParB omega fusion; a variant is named by its letters at X, in order, B8GW30 (parent)
chain: MESVVVGEPGMSEGRRGLGRGLSALLGEVDAAPAQAPGEQLGGSREAPIEILQRNPDQPRRTFREEDLEDLSNSIREKGVLQPILVRPSPDTAGEYQIVAGERAWRAAQRAGLKTVPIMVRELDDLAVLEIGIIENVQRADLNVLEEALSYKVLMEKFERTQENIAQTIGKSXSHVANXMRLLXLPDEVQSYLVSGELTAXHARAIAAAADPVALAKQIIEGGLSVRETEALARKAPNLSAGKSKGGRPPRVKDTDTQALESDLSSVLGLDVSIDHRGSTGTLTITYATLEQLDDLCNRLTRGI

Variants of: B1
Assay: one-hybrid fitness for binding parS DNA (scaled: cognate 1, non-cognate 0); higher = stronger binding
Details: with parS DNA site
Method in brief: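 Pre- and post-selection plasmids were Illumina-sequenced, three replicate libraries were pooled, and any variant with under 10 reads was removed. The libraries were Caulobacter ParB with four specificity codons randomised, selected in E. coli USO through a HIS3 reporter whose site is 19 bp from the promoter. Cells grew 48 hours at 37°C on M9 without histidine, with 0.1 mM IPTG and 5 mM 3-AT. Fitness is the log change in variant-to-wild-type read ratio, rescaled against cognate and non-cognate.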

Variant | one-hybrid fitness for binding parS DNA
AGRT | ≤ 0.2
FLVL | ≤ 0.2
CSMG | ≤ 0.2
GLEV | ≤ 0.2
ESFT | ≤ 0.2
IRIR | ≤ 0.2
SGAD | ≤ 0.2
TNHC | ≤ 0.2
TAGS | ≤ 0.2
TRLG | ≤ 0.2
ICAT | ≤ 0.2
RQEL | ≤ 0.2
VHRV | ≤ 0.2
HSRL | ≤ 0.2
NNTH | ≤ 0.2
AKAG | ≤ 0.2
GKSS | ≤ 0.2
ERCR | ≤ 0.2
QSTN | ≤ 0.2
QPQV | ≤ 0.2
SRGM | ≤ 0.2
RIEA | 0.451
LTAG | ≤ 0.2
HGNA | ≤ 0.2
RYKS | 0.793

Variant | one-hybrid fitness for binding parS DNA
EPAR | ≤ 0.2
SPAS | ≤ 0.2
IVDV | ≤ 0.2
QVNN | ≤ 0.2
LFNG | ≤ 0.2
RWHL | ≤ 0.2
HDRA | ≤ 0.2
IDRS | ≤ 0.2
LVTS | ≤ 0.2
QLSC | ≤ 0.2
DPPM | ≤ 0.2
PIHS | ≤ 0.2
VLHC | ≤ 0.2
QRWR | ≤ 0.2
GDQG | ≤ 0.2
YLHG | ≤ 0.2
TKQT | ≤ 0.2
IHKE | 0.205
SVIG | ≤ 0.2
RQPM | ≤ 0.2
NPVN | ≤ 0.2
SSTP | ≤ 0.2
KQPM | ≤ 0.2
PSLT | ≤ 0.2
HCDC | ≤ 0.2

Variant | one-hybrid fitness for binding parS DNA
TRTR | ≤ 0.2
PGTL | ≤ 0.2
MMNG | ≤ 0.2
YDLT | ≤ 0.2
RVGN | 0.451
AYVS | ≤ 0.2
SRKD | ≤ 0.2
TRRY | ≤ 0.2
TTNT | ≤ 0.2
KHGY | ≤ 0.2
YLFW | ≤ 0.2
AAQF | ≤ 0.2
RACW | 0.237
NLRI | ≤ 0.2
PSLS | ≤ 0.2
PMRW | ≤ 0.2
KRKQ | ≤ 0.2
IISN | ≤ 0.2
PCHV | ≤ 0.2
IAKG | ≤ 0.2
KVLL | ≤ 0.2
EAYS | ≤ 0.2
FVHN | ≤ 0.2
TMHC | ≤ 0.2
ELEL | ≤ 0.2

Variant | one-hybrid fitness for binding parS DNA
LINT | ≤ 0.2
RYGL | ≤ 0.2
QFAE | ≤ 0.2
CVET | ≤ 0.2
MGKP | ≤ 0.2
EGLR | ≤ 0.2
YYND | ≤ 0.2
MENT | ≤ 0.2
RHLY | 0.428
QCED | ≤ 0.2
NEVR | ≤ 0.2
LYKT | ≤ 0.2
QSRI | ≤ 0.2
GDTS | ≤ 0.2
QMQR | ≤ 0.2
TWAL | ≤ 0.2
GDEL | ≤ 0.2
RVKE | ≤ 0.2
HVGG | ≤ 0.2
RKQQ | ≤ 0.2
IMGG | ≤ 0.2
WSNG | ≤ 0.2
NYSQ | ≤ 0.2
GPMW | ≤ 0.2
WFAY | ≤ 0.2

Variant | one-hybrid fitness for binding parS DNA
KLYW | ≤ 0.2
IWKR | ≤ 0.2
SEMT | ≤ 0.2
HCHT | ≤ 0.2
PVNF | ≤ 0.2
IIRR | ≤ 0.2
QVDY | ≤ 0.2
TAPG | ≤ 0.2
SFAC | ≤ 0.2
QFAW | ≤ 0.2
TARL | ≤ 0.2
RFSG | 0.97
HTSW | ≤ 0.2
ERGS | ≤ 0.2
QRTH | ≤ 0.2
EVWI | ≤ 0.2
MKYS | ≤ 0.2
DINW | ≤ 0.2
SRYG | ≤ 0.2
LPWG | ≤ 0.2
CPCR | ≤ 0.2
PAKW | ≤ 0.2
YKAA | ≤ 0.2
QCSN | ≤ 0.2
QISY | ≤ 0.2

Variant | one-hybrid fitness for binding parS DNA
PQTP | ≤ 0.2
LHAV | ≤ 0.2
HYCG | ≤ 0.2
EKGS | ≤ 0.2
NSCR | ≤ 0.2
LHRL | ≤ 0.2
QAEI | ≤ 0.2
GQTS | ≤ 0.2
NWSC | ≤ 0.2
SSPV | ≤ 0.2
RYKP | ≤ 0.2
GLSR | ≤ 0.2
PIAQ | ≤ 0.2
QTGE | ≤ 0.2
EFPY | ≤ 0.2
WERL | ≤ 0.2
PGCR | ≤ 0.2
LYKH | ≤ 0.2
HISM | ≤ 0.2
RNAR | ≤ 0.2
NVTM | ≤ 0.2
VNRM | ≤ 0.2
RSMD | ≤ 0.2
HQYT | ≤ 0.2
EATE | ≤ 0.2

Variant | one-hybrid fitness for binding parS DNA
WWTD | ≤ 0.2
LPVS | ≤ 0.2
IVEA | ≤ 0.2
KRWG | ≤ 0.2
QSVF | ≤ 0.2
TPTD | ≤ 0.2
IAIS | ≤ 0.2
PHYS | ≤ 0.2
WLQR | ≤ 0.2
VRKF | ≤ 0.2
WIGT | ≤ 0.2
KYKR | ≤ 0.2
TRHN | ≤ 0.2
KPSF | ≤ 0.2
SINQ | ≤ 0.2
DNQE | ≤ 0.2
ILTM | ≤ 0.2
TLFV | ≤ 0.2
TRYM | ≤ 0.2
QAHC | ≤ 0.2
FQDG | ≤ 0.2
RSSD | ≤ 0.2
APHC | ≤ 0.2
CGTN | ≤ 0.2
RKNA | 0.834

Variant | one-hybrid fitness for binding parS DNA
VATK | ≤ 0.2
DNRT | ≤ 0.2
GNTQ | ≤ 0.2
HDKR | ≤ 0.2
RLHP | ≤ 0.2
HVVE | ≤ 0.2
TGGR | ≤ 0.2
TIWG | ≤ 0.2
HQSR | ≤ 0.2
VTMW | ≤ 0.2
YSVV | ≤ 0.2
KCSD | ≤ 0.2
RVHS | 0.972
SKPM | ≤ 0.2
QHKG | ≤ 0.2
HEHR | ≤ 0.2
RLLM | 0.372
HRHS | 0.368
TGID | ≤ 0.2
MGLM | ≤ 0.2
